Data: paper PMC6593343
Like-named read-outs stand apart in the source and are kept apart here. Results are given in words; binding and its absence hold for the method and conditions named. Binding seen in cells or lysates may run through a third protein. Some results given as binding are weak or reduced against the parent protein; the word gives no strength. Tags and fused reporters may be left off the sequences shown.

The chains behind the UniProt entries cited, without tags or fusion partners.
UniProt P01100: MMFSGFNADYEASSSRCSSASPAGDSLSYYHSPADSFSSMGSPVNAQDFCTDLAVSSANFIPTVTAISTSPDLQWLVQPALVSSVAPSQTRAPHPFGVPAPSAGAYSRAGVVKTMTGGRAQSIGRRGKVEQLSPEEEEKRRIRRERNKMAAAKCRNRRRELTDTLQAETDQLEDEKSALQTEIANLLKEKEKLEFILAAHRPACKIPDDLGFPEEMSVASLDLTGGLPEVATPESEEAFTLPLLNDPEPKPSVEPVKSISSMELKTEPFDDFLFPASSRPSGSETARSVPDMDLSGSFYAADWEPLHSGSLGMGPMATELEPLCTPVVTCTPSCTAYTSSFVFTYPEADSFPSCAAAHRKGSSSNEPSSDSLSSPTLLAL

Legend:
Experiment in all cases: FRET or BRET; sensitized emission FRET in co-transfected MDA-MB231 cells; donor TQ2 fusions, acceptor SYFP2 fusions; cells arrested 48 h, cycloheximide 50 ug/mL 1 h before FBS, fixed 15 min later with 4% paraformaldehyde; confocal microscopy
[1] = target: T1, PIS (phosphatidylinositol synthase) fused to the acceptor FRET-pair (pSYFP-PIS) (UniProt O14735)
T1 sequence: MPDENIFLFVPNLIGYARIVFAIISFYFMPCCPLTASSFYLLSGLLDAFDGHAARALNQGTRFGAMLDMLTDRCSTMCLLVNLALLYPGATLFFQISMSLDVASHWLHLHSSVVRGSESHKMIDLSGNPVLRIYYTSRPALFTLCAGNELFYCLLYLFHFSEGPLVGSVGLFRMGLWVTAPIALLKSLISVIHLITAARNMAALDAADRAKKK

[2] = target: T2, CDS1 (CDP-diacylglycerol synthase 1) fused to the acceptor FRET-pair (pSYFP-CDS1) (UniProt Q92903)
T2 sequence: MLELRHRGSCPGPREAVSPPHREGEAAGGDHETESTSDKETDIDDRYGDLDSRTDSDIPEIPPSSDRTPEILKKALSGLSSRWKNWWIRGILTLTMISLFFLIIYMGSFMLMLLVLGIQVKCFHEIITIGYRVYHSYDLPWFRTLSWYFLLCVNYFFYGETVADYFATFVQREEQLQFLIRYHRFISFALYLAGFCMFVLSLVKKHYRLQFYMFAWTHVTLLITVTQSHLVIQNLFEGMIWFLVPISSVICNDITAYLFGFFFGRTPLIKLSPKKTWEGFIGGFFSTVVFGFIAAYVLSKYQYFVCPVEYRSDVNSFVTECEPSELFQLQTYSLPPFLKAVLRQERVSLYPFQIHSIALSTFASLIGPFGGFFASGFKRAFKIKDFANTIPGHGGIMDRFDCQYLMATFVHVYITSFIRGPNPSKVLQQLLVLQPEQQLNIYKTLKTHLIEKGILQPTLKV

[3] = substrate: T3, PIS (phosphatidylinositol synthase) fused to the acceptor FRET-pair (pSYFP-PIS) (UniProt O14735); remark: listed apart in the source
T3 sequence: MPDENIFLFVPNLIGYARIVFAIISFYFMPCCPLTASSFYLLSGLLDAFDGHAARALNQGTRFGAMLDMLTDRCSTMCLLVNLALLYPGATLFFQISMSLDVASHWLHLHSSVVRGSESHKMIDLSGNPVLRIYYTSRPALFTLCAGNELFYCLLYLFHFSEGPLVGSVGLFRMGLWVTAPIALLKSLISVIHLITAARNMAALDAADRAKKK

c-Fos fused to the donor FRET-pair (pTQ2-c-Fos) (from UniProt P01100 1-380)
binding [1]: no binding | binding [2]: binds

B1: Fra-1-NB: N-terminus plus basic domain of Fra-1 (aa 1-127) fused to pTQ2 (domain or fragment, UniProt P15407 1-127)
chain: MFRDFGEPGPSSGNGGGYGGPAQPPAAAQAAQQKFHLVPSINTMSGSQELQWMVQPHFLGPSSYPRPLTYPQYSPPQPRPGVIRALGPPPGVRRRPCEQISPEEEERRRVRRERNKLAAAKCRNRRK
binding [2]: binds

B2: Fra-1-BC: basic domain plus the C-terminus of Fra-1 (aa 108-271) fused to pTQ2 (domain or fragment, UniProt P15407 108-271)
chain: RRVRRERNKLAAAKCRNRRKELTDFLQAETDKLEDEKSGLQREIEELQKQKERLELVLEAHRPICKIPEGAKEGDTGSTSGTSSPPAPCRPVPCISLSPGPVLEPEALHTPTLMTTPSLTPFTPSLVFTYPSTPEPCASAHRKSSSSSGDPSSDPLGSPTLLAL
binding [2]: no binding

B3: full length Fra-1 fused to the donor FRET-pair (pTQ2-Fra-1) (protein, UniProt P15407 1-271)
chain: MFRDFGEPGPSSGNGGGYGGPAQPPAAAQAAQQKFHLVPSINTMSGSQELQWMVQPHFLGPSSYPRPLTYPQYSPPQPRPGVIRALGPPPGVRRRPCEQISPEEEERRRVRRERNKLAAAKCRNRRKELTDFLQAETDKLEDEKSGLQREIEELQKQKERLELVLEAHRPICKIPEGAKEGDTGSTSGTSSPPAPCRPVPCISLSPGPVLEPEALHTPTLMTTPSLTPFTPSLVFTYPSTPEPCASAHRKSSSSSGDPSSDPLGSPTLLAL
binding [2]: binds | binding [3]: no binding

B4: Fra-1-NA: N-terminus of Fra-1 (aa 1-107) fused to pTQ2 (domain or fragment, UniProt P15407 1-107)
chain: MFRDFGEPGPSSGNGGGYGGPAQPPAAAQAAQQKFHLVPSINTMSGSQELQWMVQPHFLGPSSYPRPLTYPQYSPPQPRPGVIRALGPPPGVRRRPCEQISPEEEER
binding [2]: binds
